Measurements taken from PubChem BioAssay AID686979 (National Center for Advancing Translational Sciences (NCATS), 2013).
Among all 420,000 compounds or so, about 50,000 (12%) were called active. Inconclusive results, whose numbers are uncertain, are shown with a selection of clear calls. Calls follow the shape of the dose curve; as a rule, active = well fitted inhibition curve with a large enough effect; inconclusive = small, poorly fitted or top-dose-only effect; inactive = flat fitted curve, though single readings scatter. No potency is given beside an inconclusive call; the fits are too rough.

Test: qHTS for Inhibitors of human tyrosyl-DNA phosphodiesterase 1 (TDP1): qHTS in cells in presence of CPT; also: nearly all actives have a fitted effect of over 55% in size
Details: chicken DT40 Tdp1-/-;hTDP1 cells + 20 nM CPT, ATP luminescence, 48 h; activity change, negative = growth inhibition: at 46.2 µM (top of the series) unless noted
Procedure, shortened: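 Chicken DT40 Tdp1-/- cells complemented with human TDP1, 400 cells/well, exposed to compounds plus 20 nM camptothecin for at least 48 h at 37 C; viability read as ATP content by CellTiter-Glo luminescence.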
% is scaled to controls: 0 for no effect and ±100 for the full control effect; potency is read from the fitted curve at half-maximal effect; tags tell the direction and shape of the fitted curve.

Row | Structure (SMILES) | Potency | activity change, negative = growth inhibition
1 | Cc1cc(Cl)ccc1NC(=S)N1CCN(Cc2ccc3c(c2)OCO3)CC1 | inconclusive [inhibitor, single point] | 
2 | CC(NC(=O)C12CC3CC(CC(C3)C1)C2)C(=O)NCCN(C)C (configuration not stated) | inconclusive [inhibitor, full curve, poor fit] | 
3 | Cc1ccc(CNC(=O)c2nccnc2C(=O)O)cc1 |  | inactive: 8%
4 | CCN(CC)S(=O)(=O)c1ccc(N(C)Cc2cccnc2)nc1 | inconclusive [inhibitor, single point] | 
5 | CCOc1cc(OCC)cc(C(=O)N2CCC[C@H]2C(=O)N2CCC[C@H]2C(=O)N[C@@H](C)c2ccccc2)c1 | inconclusive [inhibitor, single point] | 
6 | Cc1cc(C)cc(C(=O)N2CC(=O)Nc3ccccc32)c1 | active: 0.92 µM | 
7 | O=C(COC(=O)Cc1ccccc1F)NCc1ccc(Cl)cc1 |  | inactive: -12.3%
8 | CCOc1ccc(NS(=O)(=O)c2cc(C)c(C)cc2C)cc1 | inconclusive [inhibitor, single point] | 
9 | N#Cc1c(N)sc2c1CCCCCC2 |  | inactive: -8.26%
10 | Cc1ccccc1NC(=O)Cc1nc(COC(=O)C(NC(=O)c2ccccc2C)C(C)C)cs1 (configuration not stated) | inconclusive [inhibitor, single point] | 
11 | Cc1cccc2cc(C#N)c(SCc3nnc(-c4ccccc4[N+](=O)[O-])o3)nc12 | inconclusive [inhibitor, single point] | 
12 | COc1ccc(/C=N/NC(=O)CN(c2ccc(OC)cc2)S(=O)(=O)c2ccccc2)cc1 | inconclusive [inhibitor, single point] | 
13 | Cc1ccc(-n2c(C(C)C)nc3oc4ccccc4c(=O)c3c2=O)cc1 | inconclusive [inhibitor, single point] | 
14 | Fc1ccc2c(c1)C(c1ccncc1)=NNC(c1ccc(Cl)cc1)=N2 | inconclusive [inhibitor, single point] | 
15 | CCC(Cc1ccccc1)NC(=O)c1cc(S(=O)(=O)N2CCCCC2)c[nH]1 (configuration not stated) | inconclusive [inhibitor, single point] | 
16 | O=C(CN1CCN(c2ccc([N+](=O)[O-])cc2)CC1)c1ccccc1 | inconclusive [inhibitor, partial curve] | 
17 | COc1cccc(-c2cn3ncsc3n2)c1 |  | inactive: -13.1%
18 | CCCOC1CCCN(C(=O)c2ccc3oc(C(C)C)nc3c2)C1 (configuration not stated) | inconclusive [inhibitor, partial curve] | 
19 | CC1(C(=O)NCc2ccccc2)CCC(=O)N1CCCn1ccnc1 (configuration not stated) |  | inactive: 0.868%
20 | Cc1c(C(=O)OCC(=O)c2c(N)n(CC(C)C)c(=O)n(C)c2=O)oc2ccccc12 | inconclusive [inhibitor, single point] | 
21 | O=C(c1cc2ccccc2oc1=O)N(c1ccccc1)C1C=CS(=O)(=O)C1 (configuration not stated) |  | inactive: -3.75%
22 | CC(C)Oc1cccc(C(=O)C2CCCN(C(=O)CCn3cnnn3)C2)c1 (configuration not stated) |  | inactive: -5.37%
23 | Cc1ccccc1CSc1ccc(-c2cccs2)nn1 | inconclusive [inhibitor, single point] | 
24 | COc1cc(CN2C(=O)C(C)ON=C2c2ccccc2F)cc(OC)c1 (configuration not stated) | inconclusive [inhibitor, single point] | 

Row | Structure (SMILES) | Potency | activity change, negative = growth inhibition
25 | COc1ccc(CN2CCC(C(=O)NCCc3ccc(OC)c(OC)c3)CC2)c(OC)c1 |  | inactive: -3.06%
26 | Cc1ccc(NC(=O)Cn2cc(C(=O)C3CC3)c3ccccc32)cc1C | inconclusive [inhibitor, single point] | 
27 | COc1ccccc1NC(=O)Nc1nn(C)c2cccc(N(C)C)c12 | active: 14.6 µM | 
28 | CCOC(=O)c1ccccc1NC(=S)N1CCN(C(=O)c2ccco2)CC1 | inconclusive [inhibitor, full curve, poor fit] | 
29 | Cc1nc(N2CCN(C(=O)c3ccco3)CC2)c2c3c(sc2n1)CCCC3 | inconclusive [inhibitor, single point] | 
30 | COc1cccc(-c2cnc3c(NC(C)=O)cc(-c4ccc(OC)c(OC)c4)cn23)c1 | active: 10.3 µM | 
31 | Cc1cccc(NC(=O)c2cc(S(=O)(=O)N3CCCCCC3)cn2C)c1C | inconclusive [inhibitor, single point] | 
32 | Cc1cc(C)n(-c2nc(C)c(C)c(=O)n2CC(=O)Nc2ccc(OC(F)(F)F)cc2)n1 | active: 14.6 µM | 
33 | COc1ccc(C2=NOC(C(=O)Nc3cc(Br)ccc3O)C2)cc1OC (configuration not stated) | inconclusive [inhibitor, single point] | 
34 | CCCCOc1ccc(C(=O)NN2CCOCC2)cc1 |  | inactive: 1.88%
35 | COc1ccc(-c2csc(C(NC(C)=O)c3cccc(OC)c3)n2)cc1 (configuration not stated) | inconclusive [inhibitor, single point] | 
36 | CC(C)CC#Cc1ccc2c(c1)O[C@H](CN(C)C(=O)Cc1ccncc1)[C@H](C)CN([C@H](C)CO)S2(=O)=O | inconclusive [inhibitor, single point] | 
37 | O=c1/c(=C\c2ccc(O)cc2)sc2nc(-c3ccccc3)c(-c3ccccc3)n12 | inconclusive [inhibitor, single point] | 
38 | COc1ccccc1OCC(=O)NCc1n[nH]c(=O)c2ccccc12 | inconclusive [inhibitor, single point] | 
39 | O=C(OC1CC2CC1[C@H]1CCCCN1C2=O)N1CCC(c2ccccc2)CC1 (some centres not stated) | inconclusive [inhibitor, single point] | 
40 | Cc1ccc(CNC(=O)c2ccc(Cn3c(=O)c4ccccc4n(CC(=O)Nc4c(C)cc(C)cc4C)c3=O)cc2)cc1 | active: 6.51 µM | 
41 | CCCC(=O)NCCc1nc2ccccc2n1CC(=O)c1ccccc1 |  | inactive: -10.6%
42 | COc1ccc(/C=N/Nc2ncnc3c2[nH]c2ccc(C)cc23)c(OC)c1OC | inconclusive [inhibitor, partial curve] | 
43 | COc1ccc(N2CCN(C(=O)c3oc4ccccc4c3NC(=O)CCc3cc(OC)no3)CC2)cc1 | inconclusive [inhibitor, single point] | 
44 | COc1ccccc1N(C)S(=O)(=O)c1ccc(C(=O)Nc2ccc3nc(C)sc3c2)cc1 | active: 16.4 µM | 
45 | Cc1cc(-c2ccccc2)cc(-c2ccccc2)[n+]1C | active: 10.3 µM | 
46 | COc1cccc(N2C(=O)C(CC(=O)Nc3ccc(F)cc3)N(C3CCCCC3)C2=O)c1 (configuration not stated) |  | inactive: -5.15%
47 | CCOc1ccc(S(=O)(=O)N2CCCC(C(=O)NCc3cccnc3)C2)cc1C (configuration not stated) | inconclusive [inhibitor, single point] | 
48 | COc1ccccc1C(=O)N[C@@H]1c2ccccc2C2(CCN(C(=O)c3csnn3)CC2)[C@H]1OC |  | inactive: -8.07% [at 9.04 µM]

Row | Structure (SMILES) | Potency | activity change, negative = growth inhibition
49 | NC(=S)NN=C1CCCCCCCC1 | active: 2.31 µM | 
50 | CC(C)CC(=O)Nc1ccc(C(=O)COC(=O)CN2C(=O)NC3(CCCCC3C)C2=O)cc1 (configuration not stated) |  | inactive: -0.567%
51 | Nc1nnc(-c2cc3ccccc3oc2=O)s1 |  | inactive: -21.5%
52 | COc1ccccc1-c1ccnc(-n2ncc(C(=O)NC(c3cccnc3)C(F)(F)F)c2C)n1 (configuration not stated) |  | inactive: -5.39% [at 9.04 µM]
53 | Cc1cc(-c2nnc(CCC(=O)NCc3cc(F)cc(C(F)(F)F)c3)o2)no1 |  | inactive: -14.2%
54 | CCC(=O)Nc1ccc(Nc2nc(Cl)nc(Nc3ccc(NC(=O)CC)cc3)n2)cc1 |  | inactive: -9.94%
55 | COc1ccc(OC)c(-n2nnc(-c3nc(-c4cc(OC)c(OC)c(OC)c4)no3)c2C)c1 | inconclusive [inhibitor, single point] | 
56 | Cc1ccc(NC(=O)c2noc3c2CC(C(C)(C)C)CC3)cc1 (configuration not stated) | inconclusive [inhibitor, single point] | 
57 | COc1ccc(NC(=O)CSc2ncnc3c2sc2ccccc23)c(OC)c1 | inconclusive [inhibitor, single point] | 
58 | CS(=O)(=O)c1ccc(Cl)c(NC(=O)CCl)c1 | active: 5.8 µM | 
59 | CC(=O)COc1c(-c2ccco2)oc2ccccc2c1=O |  | inactive: 0.36%
60 | c1cnc(N2CCN(c3ncc4c(n3)CCNC4)CC2)nc1 |  | inactive: 16.3%
61 | COc1ccc(/C=C2/C(=O)N(CC3CCCO3)C(=S)N2C)c(OC)c1 (configuration not stated) | inconclusive [inhibitor, single point] | 
62 | Cc1ccc2[nH]c3c(c2c1)CCc1cn[nH]c1-3 | inconclusive [inhibitor, single point] | 
63 | CC(C)(C)n1nnnc1C(c1ccc(C#N)cc1)N1CCCC2(CCCCC2)C1 (configuration not stated) | active: 20.6 µM | 
64 | O=C(c1ccc(Br)o1)N(Cc1ccccc1)c1ccccn1 |  | inactive: -18.5%
65 | NC(=O)c1ncn([C@@H]2O[C@H](CNCc3ccc(-c4cc(C(F)(F)F)ccc4Cl)o3)[C@@H](O)[C@H]2O)n1 |  | inactive: 5.68%
66 | CCCc1nc(SCC(=O)Nc2ccc(S(=O)(=O)N(C)C)cc2)c2ccccc2n1 | inconclusive [inhibitor, full curve] | 
67 | COc1ccc2cc(C(=O)C3CCCN(Cc4cccc(C)n4)C3)ccc2c1 (configuration not stated) | active: 2.59 µM | 
68 | O=c1oc2c3c(ccc2c2ccccc12)OCN(Cc1ccc(Cl)cc1)C3 | inconclusive [inhibitor, single point] | 
69 | OC1(c2ccc3c(c2)OCO3)CCN(Cc2ccc(F)cc2)CC1 |  | inactive: 2.79%
70 | CCN(CC)S(=O)(=O)c1ccc(Cl)c(NC(=O)COC(=O)c2cccn2C)c1 | inconclusive [inhibitor, single point] | 
71 | Cc1cc2cc(CNC(=O)c3cccc([N+](=O)[O-])c3)ccc2[nH]1 | inconclusive [inhibitor, single point] | 
72 | COCCn1c(=O)[nH]c2cc(C(=O)N3CCN(c4ccccc4)CC3)ccc2c1=O | inactive | 
